In article PMC4336329 (PLoS ONE, 2015):
In all, about 310,000 compounds went through this assay and about 2,200 (0.71%) showed an effect of 50% or more. Effects have a minus sign here. Some of the results follow.

The compounds below were run against human ether-à-go-go-related gene (hERG) potassium channel (human, UniProt Q12809) (assay: primary screen, population patch clamp on CHO cells stably expressing hERG).
Sequence of human ether-à-go-go-related gene (hERG) potassium channel (Q12809 whole entry, looked up): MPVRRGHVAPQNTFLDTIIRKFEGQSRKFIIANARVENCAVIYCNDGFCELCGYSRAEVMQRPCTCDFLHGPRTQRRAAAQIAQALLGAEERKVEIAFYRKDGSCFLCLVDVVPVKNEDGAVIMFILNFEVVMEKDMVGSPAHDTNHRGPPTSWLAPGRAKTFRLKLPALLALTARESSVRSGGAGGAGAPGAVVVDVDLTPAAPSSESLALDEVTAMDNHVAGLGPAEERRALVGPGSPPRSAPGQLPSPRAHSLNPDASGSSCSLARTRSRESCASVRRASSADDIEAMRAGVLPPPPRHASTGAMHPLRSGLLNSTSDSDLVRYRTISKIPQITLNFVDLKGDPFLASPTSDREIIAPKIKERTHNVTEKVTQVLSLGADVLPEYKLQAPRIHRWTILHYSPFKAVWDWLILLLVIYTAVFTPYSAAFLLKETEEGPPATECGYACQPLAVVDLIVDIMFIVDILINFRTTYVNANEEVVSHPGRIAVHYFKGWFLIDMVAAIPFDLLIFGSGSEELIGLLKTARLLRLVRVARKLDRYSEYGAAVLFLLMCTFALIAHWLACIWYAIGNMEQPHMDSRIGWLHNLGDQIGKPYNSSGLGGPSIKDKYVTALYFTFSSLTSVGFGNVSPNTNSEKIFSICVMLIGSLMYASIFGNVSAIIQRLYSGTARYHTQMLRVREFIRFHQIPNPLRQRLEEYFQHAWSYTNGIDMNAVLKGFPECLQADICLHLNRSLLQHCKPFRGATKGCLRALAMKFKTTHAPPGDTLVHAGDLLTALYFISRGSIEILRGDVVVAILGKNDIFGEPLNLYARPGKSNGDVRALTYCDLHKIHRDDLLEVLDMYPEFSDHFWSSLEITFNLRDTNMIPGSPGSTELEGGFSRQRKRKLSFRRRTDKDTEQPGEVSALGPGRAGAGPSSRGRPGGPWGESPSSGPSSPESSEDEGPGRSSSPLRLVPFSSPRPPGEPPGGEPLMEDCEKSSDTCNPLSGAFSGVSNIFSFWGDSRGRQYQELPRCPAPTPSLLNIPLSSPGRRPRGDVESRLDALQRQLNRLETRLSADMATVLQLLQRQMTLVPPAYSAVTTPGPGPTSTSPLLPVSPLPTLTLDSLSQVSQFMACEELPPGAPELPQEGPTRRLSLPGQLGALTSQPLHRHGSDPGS

Compound | hERG current change (%, negative = inhibition) at 1uM
O=C(O)c1ccc2c(c1)C(c1ccccc1)OC2=O (stereo not shown) | 4.36%
O=C(NCc1ccccn1)c1cc(S(=O)(=O)N2CCCCCC2)ccc1Cl | 16.6%
C[C@H](NC(=O)[C@@H]1CSC2c3ccccc3C(=O)N21)C(=O)NCCc1ccccc1 (stereo partly shown) | 9.4%
CC(=O)c1cccc(NC(=S)NCc2ccco2)c1 | 8.86%
CN(C)C(=N)c1n[nH]nc1SCc1ccc(Cl)c(Cl)c1.Cl | 6.32%
c1ccc(OCCSc2nnnn2-c2ccccc2)cc1 | -13.4%
O=C(CSc1ncn[nH]1)N1N=C(c2ccc(Cl)cc2)CC1c1ccco1 (stereo not shown) | -2.39%
Cc1ccc2c(CSc3nnc(N)s3)cc(=O)oc2c1 | 0.379%
Cn1nnnc1SCC(=O)C(C)(C)C | 6.65%
C#CCNC(=O)C1=C[C@@H](C2CC2)C[C@@H](OCc2ccc(CO)cc2)O1 | 16%
CCC(C)[C@H](NC(=O)NC1CCN(Cc2ccccc2)CC1)C(=O)OC (stereo partly shown) | -1.71%
COc1ccc2nc3oc(C(=O)NCc4cccs4)cc3cc2c1 | -5.34%
Cc1ccc(NC(=O)COc2ccc(CCO)cc2-n2nc3ccccc3n2)cc1C | 14.7%
O=S(Cc1ccc(Cl)cc1)CC(O)COCc1ccc(Cl)cc1 (stereo not shown) | 0.524%
COc1cc(C)c(CN2CCCCC2CO)cc1C (stereo not shown) | 4.82%
CN(CC(=O)NCc1cccnc1)S(=O)(=O)c1cc(Cl)ccc1Cl | -0.369%
Cc1ccc(CNC(=O)c2cc3c(-c4ccc(Cl)cc4)nn(C)c3s2)o1 | 6.73%
CCn1c(SCC(=O)Nc2ccccc2C(=O)OC)nnc1-c1ccoc1C | 2.55%
CCn1c(O)c(C=NC2CCCC(C)C2C)sc1=S (stereo not shown) | 23%
CN(/N=C/c1ccncc1)C1=NS(=O)(=O)c2ccccc21 | 3.37%
CN1CCN(C(=O)/C=C/c2cn(-c3ccccc3)nc2-c2ccc3c(c2)OCCO3)CC1.Cl | 7.65%
CCn1cc(S(=O)(=O)Nc2ccc(C)c(Cl)c2)cn1 | 5.45%
Cc1ccc(C(=O)O/N=C(\N)Cc2cccc3ccccc23)cc1 | 13.9%

Compound | hERG current change (%, negative = inhibition) at 1uM
COc1cc2c(C(=O)N3CCN(c4cccc(Cl)c4)CC3)cn(C)c(=O)c2cc1OC | -21.3%
Cc1nn(Cc2ccccc2)c(Cl)c1/C=C/C(=O)OCC(=O)N1CCCC1=O | -2.01%
O=C(Cn1cc(C(F)(F)F)cc(Cl)c1=O)NCc1ccc(Cl)cc1Cl | 7.81%
CCN(Cc1cnn(C)c1)C(=O)C1CCC(=O)N(CCc2ccc(OC)cc2)C1 (stereo not shown) | 10.7%
O=C(O)c1ccccc1-n1c2ccccc2c2ccccc21 | 11%
O=C(NC(NC(=S)Nc1ccc(Cl)c(Cl)c1)C(Cl)(Cl)Cl)c1ccco1 (stereo not shown) | 14.2%
COc1cc(C)c(S(=O)(=O)N2CCCC2)cc1C | 11.2%
CC(C(=O)NCc1ccco1)c1ccc([N+](=O)[O-])cc1 (stereo not shown) | 5.93%
Cc1ccccc1OCCC(=O)N1CCN(S(=O)(=O)c2ccc(Cl)cc2)CC1 | 5.86%
O=S(=O)(c1ccccc1)N1CCN=C1SCc1ccccc1Cl | 15.7%
COc1cc(C2C(C(C)=O)=C(C)Nc3ncnn32)ccc1O (stereo not shown) | 10.7%
CCCCn1nc(NC(=O)COC)c2cc3ccc(C)cc3nc21 | 15.1%
CCn1cc(CCCC(=O)NCc2cccnc2)c2ccccc21 | 8.07%
O=C(O)CC1(CC(=O)Nc2ccc3sccc3c2)CCCCC1 | 9.18%
CC(C)=CC(=O)Nc1nnc(C(C)C)s1 | 11.2%
Cc1nnc(NC(=O)CSc2nnc(CC(=O)Nc3ccccc3C)n2C)s1 | 17.4%
COc1ccc(CCn2c(C)cc(C(=O)COC(=O)c3ccc(NC(=O)CC#N)cc3)c2C)cc1 | 5.24%
Cc1cccc2cc3c(NC(=O)C(C)C)nn(C)c3nc12 | 17%
CC(C)c1nc(SCC(=O)N2CCCC2)c2ccccc2n1 | 3.55%
FC(F)(F)c1cc(-c2cccs2)nc(-n2cc(Cl)cn2)n1 | 13.1%
O=C(CCSc1ccc(Cl)cc1)c1ccco1 | 7.89%
CCOc1ccc(NC(=O)CCCCn2c(=O)[nH]c3ccsc3c2=O)cc1 | -3.89%
O=C(/C=C/c1ccccc1Cl)Nc1cccc(O)c1 | 12.3%
